{"source": "patent EP0918774B9", "about": "“ANDROGEN RECEPTOR MODULATOR COMPOUNDS AND METHODS” (LIGAND PHARMACEUTICALS INCORPORATED, priority 1996, dated 1997)", "key": {"[1]": {"tested_on": "Mouse Renal Ornithine Decarboxylase (ODC) Activity", "assay_type": "in vivo, castrated male ICR mice", "conditions": "for % Inhibition of ODC Activity 1 day p.o.: negative number = no AR antagonist effect; for inhibition of ODC induction by testosterone propionate (in words): testosterone propionate 0.1 mg/mouse used to induce the enzyme activity"}, "[2]": {"tested_on": "Mouse Renal Ornithine Decarboxylase (ODC) Activity"}, "[3]": {"conditions": "dose 1 mg/mouse, combined with TP 0.1 mg/mouse/day s.c."}}, "note": "Read-outs that look alike come from different tables or passages of the source."}
{"compound": "CC12CCCN1c1cc3[nH]c(=O)cc(C(F)(F)F)c3cc1CC2", "note": "(racemic) [Compound 101, (R/S)-6,7,7a,11-Tetrahydro-7a-methyl-4-trifluoromethyl-2-pyridono[5,6-g]pyrrolidino[1,2-a]quinoline]", "values": [{"measurement": "% Inhibition of ODC Activity 3 days p.o.", "setting": "[1]; [3]", "value": 26.2, "unit": "%"}, {"measurement": "% Inhibition of ODC Activity 1 day p.o.", "setting": "[1]; [3]", "value": 31.7, "unit": "%"}]}
{"compound": "CC12CCCN1c1cc3[nH]c(=O)c(F)c(C(F)(F)F)c3cc1CC2", "note": "(racemic) [Compound 102, (R/S)-3-Fluoro-6,7,7a,11-tetrahydro-7a-methyl-4-trifluoromethyl-2-pyridono[5,6-g]pyrrolidino[1,2-a]quinoline]", "values": [{"measurement": "% Inhibition of ODC Activity 1 day s.c.", "setting": "[1]; dose 1 mg/mouse, combined with TP 0.1 mg/mouse/day s.c., TP group 0%, castrated group 100% inhibition", "value": 25.4, "unit": "%"}]}
{"compound": "CC(O)(CS(=O)(=O)c1ccc(F)cc1)C(=O)Nc1ccc(C#N)c(C(F)(F)F)c1", "note": "(centres unmarked) [Cas, reference compound]", "values": [{"measurement": "inhibition of ODC induction by testosterone propionate (in words)", "setting": "[1]", "value": "inhibited this induction"}]}
{"compound": "CC(=O)O[C@]1(C(C)=O)CC[C@H]2[C@@H]3C=C(Cl)C4=CC(=O)[C@@H]5C[C@@H]5[C@]4(C)[C@H]3CC[C@@]21C", "note": "[Cyproterone acetate, cyproterone acetate, reference compound]", "values": [{"measurement": "% Inhibition of ODC Activity 3 days p.o.", "setting": "[1]; [3]", "value": 81.7, "unit": "%"}, {"measurement": "% Inhibition of ODC Activity 1 day p.o.", "setting": "[1]; [3]", "value": 91.1, "unit": "%"}, {"measurement": "inhibition of ODC induction by testosterone propionate (in words)", "setting": "[1]", "value": "inhibited this induction"}]}
{"compound": "CC(=O)[C@H]1CC[C@H]2[C@@H]3CCC4=CC(=O)CC[C@]4(C)[C@H]3CC[C@]12C", "note": "[Prog, progesterone]", "values": [{"measurement": "stimulatory activity on ODC", "setting": "[2]; 1 mg/mouse", "value": "did not show any stimulatory activity"}]}
{"compound": "CCC(=O)O[C@H]1CC[C@H]2[C@@H]3CCC4=CC(=O)CC[C@]4(C)[C@H]3CC[C@]12C", "note": "[Testosterone Propionate, Testosterone propionate]", "values": [{"measurement": "Mouse Renal ODC activity (fold increase compared to castrated control)", "setting": "[2]; 0.01 mg/mouse, s.c. for 3 days", "value": 1, "unit": "fold"}, {"measurement": "Mouse Renal ODC activity (fold increase compared to castrated control)", "setting": "[2]; 0.03 mg/mouse, s.c. for 3 days", "value": 10, "unit": "fold"}, {"measurement": "Mouse Renal ODC activity (fold increase compared to castrated control)", "setting": "[2]; 0.1 mg/mouse, s.c. for 1 day", "value": 9.7, "unit": "fold"}, {"measurement": "Mouse Renal ODC activity (fold increase compared to castrated control)", "setting": "[2]; 0.1 mg/mouse, s.c. for 3 days", "value": 173, "unit": "fold"}, {"measurement": "Mouse Renal ODC activity (fold increase compared to castrated control)", "setting": "[2]; 0.3 mg/mouse, s.c. for 1 day", "value": 21.9, "unit": "fold"}, {"measurement": "Mouse Renal ODC activity (fold increase compared to castrated control)", "setting": "[2]; 0.3 mg/mouse, s.c. for 3 days", "value": 414, "unit": "fold"}, {"measurement": "Mouse Renal ODC activity (fold increase compared to castrated control)", "setting": "[2]; 1.0 mg/mouse, s.c. for 1 day", "value": 26.4, "unit": "fold"}, {"measurement": "Mouse Renal ODC activity (fold increase compared to castrated control)", "setting": "[2]; 1.0 mg/mouse, s.c. for 3 days", "value": 707, "unit": "fold"}, {"measurement": "increase in ODC activity compared to castrated controls", "setting": "[2]; text: highest dose, 1.0 mg/mouse/day", "value": 700, "unit": "fold"}]}
